Measurements reported in paper PMC9911399, “Two distinct binding modes provide the RNA-binding protein RbFox with extraordinary sequence specificity”.
Changes are numbered by the printed parent chain; changes in the protein carry UniProt numbers. The list shows a part of the results.

T1: RBFOX1 RRM RbFoxmut (Fox-RRM*) (Homo sapiens, UniProt Q9NWB1 109-208, R118D;E147R;N151S;E152T)
T1 sequence: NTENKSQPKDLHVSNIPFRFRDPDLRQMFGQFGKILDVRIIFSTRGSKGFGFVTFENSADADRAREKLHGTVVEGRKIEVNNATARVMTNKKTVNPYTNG

B1: UAAUGCA (DNA:RNA)
RNA: GGGAGACCGGAAUUCAGAUUGUCCUAAUGCAUUAAAUCCCGUCGUAGCCACCA
DNA 1: CAATCTGAATTCCGGTCTCCC
DNA 2: TGGTGGCTACGACGGGATT
B2: UGUCUAG (DNA:RNA)
RNA: B1 RNA with A26G, A27U, U28C, G29U, C30A, A31G
DNA 1: CAATCTGAATTCCGGTCTCCC
DNA 2: TGGTGGCTACGACGGGATT
B3: GAUCUAU (DNA:RNA)
RNA: B1 RNA with U25G, A27U, U28C, G29U, C30A, A31U
DNA 1: CAATCTGAATTCCGGTCTCCC
DNA 2: TGGTGGCTACGACGGGATT
B4: CUUUACU (DNA:RNA)
RNA: B1 RNA with U25C, A26U, A27U, G29A, A31U
DNA 1: CAATCTGAATTCCGGTCTCCC
DNA 2: TGGTGGCTACGACGGGATT
B5: UUCACUG (DNA:RNA)
RNA: B1 RNA with A26U, A27C, U28A, G29C, C30U, A31G
DNA 1: CAATCTGAATTCCGGTCTCCC
DNA 2: TGGTGGCTACGACGGGATT
B6: CUGAUUC (DNA:RNA)
RNA: GGGAGACCGGAAUUCAGAUUGUCCCUGAUUCUUAAAUCCCGUCGUAGCCACCA
DNA 1: CAATCTGAATTCCGGTCTCCC
DNA 2: TGGTGGCTACGACGGGATT
B7: UCCUGGA (DNA:RNA)
RNA: B1 RNA with A26C, A27C, C30G
DNA 1: CAATCTGAATTCCGGTCTCCC
DNA 2: TGGTGGCTACGACGGGATT
B8: UGGGUGA (DNA:RNA)
RNA: B6 RNA with C25U, U26G, A28G, U30G, C31A
DNA 1: CAATCTGAATTCCGGTCTCCC
DNA 2: TGGTGGCTACGACGGGATT
B9: AAGUAAC (DNA:RNA)
RNA: B6 RNA with C25A, U26A, A28U, U29A, U30A
DNA 1: CAATCTGAATTCCGGTCTCCC
DNA 2: TGGTGGCTACGACGGGATT
B10: AAUUCGG (DNA:RNA)
RNA: B1 RNA with U25A, A27U, G29C, C30G, A31G
DNA 1: CAATCTGAATTCCGGTCTCCC
DNA 2: TGGTGGCTACGACGGGATT
B11: UUCGGCU (DNA:RNA)
RNA: B1 RNA with A26U, A27C, U28G, A31U
DNA 1: CAATCTGAATTCCGGTCTCCC
DNA 2: TGGTGGCTACGACGGGATT
B12: AUGUGUC (DNA:RNA)
RNA: B6 RNA with C25A, A28U, U29G
DNA 1: CAATCTGAATTCCGGTCTCCC
DNA 2: TGGTGGCTACGACGGGATT
B13: GACGAGA (DNA:RNA)
RNA: B1 RNA with U25G, A27C, U28G, G29A, C30G
DNA 1: CAATCTGAATTCCGGTCTCCC
DNA 2: TGGTGGCTACGACGGGATT
B14: UGAGGCA (DNA:RNA)
RNA: B1 RNA with A26G, U28G
DNA 1: CAATCTGAATTCCGGTCTCCC
DNA 2: TGGTGGCTACGACGGGATT
B15: AAGAGGU (DNA:RNA)
RNA: B6 RNA with C25A, U26A, U29G, U30G, C31U
DNA 1: CAATCTGAATTCCGGTCTCCC
DNA 2: TGGTGGCTACGACGGGATT
B16: AGCGUGU (DNA:RNA)
RNA: B6 RNA with C25A, U26G, G27C, A28G, U30G, C31U
DNA 1: CAATCTGAATTCCGGTCTCCC
DNA 2: TGGTGGCTACGACGGGATT
B17: GGGGUUU (DNA:RNA)
RNA: B6 RNA with C25G, U26G, A28G, C31U
DNA 1: CAATCTGAATTCCGGTCTCCC
DNA 2: TGGTGGCTACGACGGGATT
B18: AUCCUGU (DNA:RNA)
RNA: B6 RNA with C25A, G27C, A28C, U30G, C31U
DNA 1: CAATCTGAATTCCGGTCTCCC
DNA 2: TGGTGGCTACGACGGGATT
B19: GACGCGC (DNA:RNA)
RNA: B6 RNA with C25G, U26A, G27C, A28G, U29C, U30G
DNA 1: CAATCTGAATTCCGGTCTCCC
DNA 2: TGGTGGCTACGACGGGATT
B20: CAAGAUA (DNA:RNA)
RNA: B1 RNA with U25C, U28G, G29A, C30U
DNA 1: CAATCTGAATTCCGGTCTCCC
DNA 2: TGGTGGCTACGACGGGATT
B21: CAUUCAA (DNA:RNA)
RNA: B1 RNA with U25C, A27U, G29C, C30A
DNA 1: CAATCTGAATTCCGGTCTCCC
DNA 2: TGGTGGCTACGACGGGATT
B22: ACACCUC (DNA:RNA)
RNA: B6 RNA with C25A, U26C, G27A, A28C, U29C
DNA 1: CAATCTGAATTCCGGTCTCCC
DNA 2: TGGTGGCTACGACGGGATT
B23: GCCACCG (DNA:RNA)
RNA: B6 RNA with C25G, U26C, G27C, U29C, U30C, C31G
DNA 1: CAATCTGAATTCCGGTCTCCC
DNA 2: TGGTGGCTACGACGGGATT
B24: CGCGACC (DNA:RNA)
RNA: B6 RNA with U26G, G27C, A28G, U29A, U30C
DNA 1: CAATCTGAATTCCGGTCTCCC
DNA 2: TGGTGGCTACGACGGGATT
B25: UUUGUCC (DNA:RNA)
RNA: B6 RNA with C25U, G27U, A28G, U30C
DNA 1: CAATCTGAATTCCGGTCTCCC
DNA 2: TGGTGGCTACGACGGGATT
B26: GCGCAAG (DNA:RNA)
RNA: B6 RNA with C25G, U26C, A28C, U29A, U30A, C31G
DNA 1: CAATCTGAATTCCGGTCTCCC
DNA 2: TGGTGGCTACGACGGGATT
B27: GGUAGAU (DNA:RNA)
RNA: B6 RNA with C25G, U26G, G27U, U29G, U30A, C31U
DNA 1: CAATCTGAATTCCGGTCTCCC
DNA 2: TGGTGGCTACGACGGGATT
B28: UCUAUGC (DNA:RNA)
RNA: B6 RNA with C25U, U26C, G27U, U30G
DNA 1: CAATCTGAATTCCGGTCTCCC
DNA 2: TGGTGGCTACGACGGGATT
B29: GCAAGGC (DNA:RNA)
RNA: B6 RNA with C25G, U26C, G27A, U29G, U30G
DNA 1: CAATCTGAATTCCGGTCTCCC
DNA 2: TGGTGGCTACGACGGGATT
B30: GCGCAAC (DNA:RNA)
RNA: B6 RNA with C25G, U26C, A28C, U29A, U30A
DNA 1: CAATCTGAATTCCGGTCTCCC
DNA 2: TGGTGGCTACGACGGGATT
B31: CUGUCCU (DNA:RNA)
RNA: B6 RNA with A28U, U29C, U30C, C31U
DNA 1: CAATCTGAATTCCGGTCTCCC
DNA 2: TGGTGGCTACGACGGGATT

What follows are binders tested against T1, RBFOX1 RRM RbFoxmut (Fox-RRM*) (assay: EMSA; HiTS-Eq, 1 nM pool, 10 min; buffer printed only for the single-RNA assays: 10 mM Tris pH 7.5, 150 mM NaCl, 3.4 mM EDTA, 0.001% NP-40, 30 C). Conditions: tags: His6 N-terminal (pET28a); label: 5' 32P.
How it was run: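 Purified RbFox RRM (wild type or mutant) was equilibrated for 10 min in 50 µL with 1 nM of a 5′-radiolabelled pool of RNA with 7 randomized nucleotides, its flanks annealed to DNA oligonucleotides, across increasing protein concentrations. Free RNA was separated by 8% native PAGE, excised, reverse-transcribed, PCR-barcoded and sequenced on an Illumina HiSeq 2500. Relative association constants came from read-count changes of each variant against the control reaction, normalised to the cognate motif.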
With B1 the binding signal was 0.171 KA relative to UGCAUGU. For B2, the binding signal was 0.124 KA relative to UGCAUGU. B3 was tested, and the binding signal was 0.0725 KA relative to UGCAUGU. B4 was tested, and the binding signal was 0.0928 KA relative to UGCAUGU. With B5 the binding signal was 0.0999 KA relative to UGCAUGU. For B6, the binding signal was 0.129 KA relative to UGCAUGU. For B7, the binding signal was 0.0709 KA relative to UGCAUGU. With B8 the binding signal was 0.207 KA relative to UGCAUGU. B9 was tested, and the binding signal was 0.1 KA relative to UGCAUGU. In the case of B10, the binding signal is reported as 0.0579 KA relative to UGCAUGU. For B11, the binding signal was 0.0805 KA relative to UGCAUGU. In the case of B12, the binding signal is reported as 0.289 KA relative to UGCAUGU. For B13, the binding signal was 0.0967 KA relative to UGCAUGU. For B14, the binding signal was 0.136 KA relative to UGCAUGU. In the case of B15, the binding signal is reported as 0.102 KA relative to UGCAUGU. With B16 the binding signal was 0.16 KA relative to UGCAUGU. B17 was tested, and the binding signal was 0.0858 KA relative to UGCAUGU. B18 was tested, and the binding signal was 0.139 KA relative to UGCAUGU. In the case of B19, the binding signal is reported as 0.102 KA relative to UGCAUGU. With B20 the binding signal was 0.132 KA relative to UGCAUGU. With B21 the binding signal was 0.0789 KA relative to UGCAUGU. In the case of B22, the binding signal is reported as 0.0553 KA relative to UGCAUGU. For B23, the binding signal was 0.101 KA relative to UGCAUGU. For B24, the binding signal was 0.0878 KA relative to UGCAUGU. In the case of B25, the binding signal is reported as 0.101 KA relative to UGCAUGU. B26 was tested, and the binding signal was 0.118 KA relative to UGCAUGU. With B27 the binding signal was 0.104 KA relative to UGCAUGU. For B28, the binding signal was 0.0911 KA relative to UGCAUGU. In the case of B29, the binding signal is reported as 0.0585 KA relative to UGCAUGU. With B30 the binding signal was 0.0609 KA relative to UGCAUGU. In the case of B31, the binding signal is reported as 0.0706 KA relative to UGCAUGU.
